# This is one part of the list.
# B1: HPAIIITrx (Helix pomatia), Q1KM18 (protein)
# chain: MLFVTIISLGLLAIVHGQCALKTIAFSAAIDREQTFDANQVVIYDIVITNHGNAYDNSTGLFTAPVDGMYSFQLNLLTIKEKEGWLELVHNGQLKVSVYAKQDSTYDSSSNSVIIKMKEGDRVNVRAHKKSGLFGRDDELYNTFSGHFLSGL
# Assays:
# Test in all cases: glycan array binding signal (z-score within array); higher = stronger binding
# Settings in all cases: glycan notation: IUPAC condensed, linker removed
# [1] = target: GlcNAc(b1-3)Gal(b1-4)GlcNAc(b1-3)Gal(b1-4)GlcNAc(b1-3)Gal(b1-4)GlcNAc(b1-3)Gal(b1-4)GlcNAc(b1-2)Man(a1-3)[GlcNAc(b1-3)Gal(b1-4)GlcNAc(b1-3)Gal(b1-4)GlcNAc(b1-3)Gal(b1-4)GlcNAc(b1-3)Gal(b1-4)GlcNAc(b1-2)Man(a1-6)]Man(b1-4)GlcNAc(b1-4)GlcNAc
# Procedure, shortened: (§1)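 Glycan array binding is given as a within-array Z-score, which can be read as non-binding when negative. The arrays, 3228 of them, came from the Consortium for Functional Glycomics database and were retained only where the protein sequence was available. Z-scores were averaged across arrays of the same protein sequence at different concentrations or buffers and across linkers.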
# [2] = target: GlcNAc(b1-3)Gal(b1-4)GlcNAc(b1-3)Gal(b1-4)GlcNAc(b1-3)Gal(b1-4)GlcNAc(b1-3)Gal(b1-4)GlcNAc(b1-2)Man(a1-3)[GlcNAc(b1-3)Gal(b1-4)GlcNAc(b1-3)Gal(b1-4)GlcNAc(b1-3)Gal(b1-4)GlcNAc(b1-3)Gal(b1-4)GlcNAc(b1-2)Man(a1-6)]Man(b1-4)GlcNAc(b1-4)[Fuc(a1-6)]GlcNAc
# Procedure, shortened: as §1
# [3] = target: GlcNAc(b1-3)Gal(b1-4)GlcNAc(b1-3)Gal(b1-4)GlcNAc(b1-3)Gal(b1-4)GlcNAc(b1-3)Gal(b1-4)GlcNAc(b1-2)[GlcNAc(b1-3)Gal(b1-4)GlcNAc(b1-3)Gal(b1-4)GlcNAc(b1-3)Gal(b1-4)GlcNAc(b1-3)Gal(b1-4)GlcNAc(b1-6)]Man(a1-6)[GlcNAc(b1-3)Gal(b1-4)GlcNAc(b1-3)Gal(b1-4)GlcNAc(b1-3)Gal(b1-4)GlcNAc(b1-3)Gal(b1-4)GlcNAc(b1-2)Man(a1-3)]Man(b1-4)GlcNAc(b1-4)[Fuc(a1-6)]GlcNAc
# Procedure, shortened: as §1
# [4] = target: GlcNAc(b1-3)Gal(b1-4)GlcNAc(b1-3)Gal(b1-4)GlcNAc(b1-3)GalNAc
# Procedure, shortened: as §1
# [5] = target: GlcNAc(b1-3)Gal(b1-4)GlcNAc(b1-3)GalNAc
# Procedure, shortened: as §1
# [6] = target: GlcNAc(b1-3)Gal(b1-4)GlcNAc(b1-3)[GlcNAc(b1-3)Gal(b1-4)GlcNAc(b1-3)]GalNAc
# Procedure, shortened: as §1
# [7] = target: GlcNAc(b1-3)Gal(b1-4)GlcNAc(b1-6)[Gal(b1-3)]GalNAc
# Procedure, shortened: as §1
# [8] = target: GlcNAc(b1-3)Gal(b1-4)GlcNAc(b1-6)[GlcNAc(b1-3)Gal(b1-3)]GalNAc
# Procedure, shortened: as §1
# [9] = target: GlcNAc(b1-3)Gal(b1-4)GlcNAc(b1-6)[GlcNAc(b1-3)]Gal(b1-4)GlcNAc
# Procedure, shortened: as §1
# GlcNAc(b1-3)GalNAc = target: GlcNAc(b1-3)GalNAc
# Procedure, shortened: as §1
# GlcNAc(b1-3)Man = target: GlcNAc(b1-3)Man
# Procedure, shortened: as §1
# [10] = target: GlcNAc(b1-3)[GlcNAc(b1-4)][GlcNAc(b1-6)]GlcNAc
# Procedure, shortened: as §1
# [11] = target: GlcNAc(b1-3)[GlcNAc(b1-6)]Gal(b1-4)GlcNAc
# Procedure, shortened: as §1
# [12] = target: GlcNAc(b1-3)[GlcNAc(b1-6)]GalNAc
# Procedure, shortened: as §1
# [13] = target: GlcNAc(b1-4)Gal(b1-4)GlcNAc
# Procedure, shortened: as §1
# GlcNAc(b1-4)GlcNAc = target: GlcNAc(b1-4)GlcNAc
# Procedure, shortened: as §1
# [14] = target: GlcNAc(b1-4)GlcNAc(b1-4)GlcNAc
# Procedure, shortened: as §1
# [15] = target: GlcNAc(b1-4)GlcNAc(b1-4)GlcNAc(b1-4)GlcNAc(b1-4)GlcNAc
# Procedure, shortened: as §1
# [16] = target: GlcNAc(b1-4)GlcNAc(b1-4)GlcNAc(b1-4)GlcNAc(b1-4)GlcNAc(b1-4)GlcNAc
# Procedure, shortened: as §1
# [17] = target: GlcNAc(b1-4)[GlcNAc(b1-6)]GalNAc
# Procedure, shortened: as §1
# [18] = target: GlcNAc(b1-6)Gal(b1-4)GlcNAc
# Procedure, shortened: as §1
# GlcNAc(b1-6)GalNAc = target: GlcNAc(b1-6)GalNAc
# Procedure, shortened: as §1
# GlcNAc3Prop(b1-4)GlcNAc = target: GlcNAc3Prop(b1-4)GlcNAc
# Procedure, shortened: as §1
# [19] = target: GlcNAc6S(b1-3)Gal(b1-4)GlcNAc
# Procedure, shortened: as §1
# Kdn(a2-3)Gal(b1-3)GalNAc = target: Kdn(a2-3)Gal(b1-3)GalNAc
# Procedure, shortened: as §1
# Kdn(a2-3)Gal(b1-3)GlcNAc = target: Kdn(a2-3)Gal(b1-3)GlcNAc
# Procedure, shortened: as §1
# Kdn(a2-3)Gal(b1-4)Glc = target: Kdn(a2-3)Gal(b1-4)Glc
# Procedure, shortened: as §1
# Kdn(a2-3)Gal(b1-4)GlcNAc = target: Kdn(a2-3)Gal(b1-4)GlcNAc
# Procedure, shortened: as §1
# [20] = target: Kdn(a2-3)Gal(b1-4)[Fuc(a1-3)]GlcNAc
# Procedure, shortened: as §1
# Kdn(a2-6)Gal(b1-4)GlcNAc = target: Kdn(a2-6)Gal(b1-4)GlcNAc
# Procedure, shortened: as §1
# [21] = target: Man(a1-2)Man(a1-2)Man(a1-3)Man
# Procedure, shortened: as §1
# [22] = target: Man(a1-2)Man(a1-2)Man(a1-6)[Man(a1-3)]Man
# Procedure, shortened: as §1
# Man(a1-2)Man(a1-3)Man = target: Man(a1-2)Man(a1-3)Man
# Procedure, shortened: as §1
# [23] = target: Man(a1-2)Man(a1-3)[Man(a1-2)Man(a1-6)]Man
# Procedure, shortened: as §1
# [24] = target: Man(a1-2)Man(a1-3)[Man(a1-2)Man(a1-6)]Man(a1-6)[Man(a1-2)Man(a1-2)Man(a1-3)]Man
# Procedure, shortened: as §1
# [25] = target: Man(a1-2)Man(a1-3)[Man(a1-2)Man(a1-6)]Man(a1-6)[Man(a1-2)Man(a1-2)Man(a1-3)]Man(b1-4)GlcNAc(b1-4)GlcNAc
# Procedure, shortened: as §1
# [26] = target: Man(a1-2)Man(a1-3)[Man(a1-6)]Man(a1-6)[Man(a1-2)Man(a1-3)]Man(b1-4)GlcNAc(b1-4)GlcNAc
# Procedure, shortened: as §1
# [27] = target: Man(a1-2)Man(a1-6)[Man(a1-3)]Man(a1-6)[Man(a1-2)Man(a1-2)Man(a1-3)]Man
# Procedure, shortened: as §1
# [28] = target: Man(a1-2)Man(a1-6)[Man(a1-3)]Man(a1-6)[Man(a1-2)Man(a1-2)Man(a1-3)]Man(b1-4)GlcNAc(b1-4)GlcNAc
# Procedure, shortened: as §1
# Man(a1-3)[Man(a1-6)]Man = target: Man(a1-3)[Man(a1-6)]Man
# Procedure, shortened: as §1
# [29] = target: Man(a1-3)[Man(a1-6)]Man(a1-6)[Man(a1-2)Man(a1-3)]Man(b1-4)GlcNAc(b1-4)GlcNAc
# Procedure, shortened: as §1
# [30] = target: Man(a1-3)[Man(a1-6)]Man(a1-6)[Man(a1-3)]Man
# Procedure, shortened: as §1
# [31] = target: Man(a1-3)[Man(a1-6)]Man(a1-6)[Man(a1-3)]Man(b1-4)GlcNAc(b1-4)GlcNAc
# Procedure, shortened: as §1
# [32] = target: Man(a1-3)[Man(a1-6)]Man(b1-4)GlcNAc(b1-4)GlcNAc
# Procedure, shortened: as §1
# [33] = target: Man(a1-3)[Man(a1-6)]Man(b1-4)GlcNAc(b1-4)[Fuc(a1-6)]GlcNAc
# Procedure, shortened: as §1
binder,measurement,setting,value
B1,glycan array binding signal (z-score),[1],-0.324
same,glycan array binding signal (z-score),[2],-0.474
same,glycan array binding signal (z-score),[3],-0.316
same,glycan array binding signal (z-score),[4],0.103
same,glycan array binding signal (z-score),[5],-0.383
same,glycan array binding signal (z-score),[6],-0.43
same,glycan array binding signal (z-score),[7],-0.382
same,glycan array binding signal (z-score),[8],-0.321
same,glycan array binding signal (z-score),[9],-0.043
same,glycan array binding signal (z-score),GlcNAc(b1-3)GalNAc,-0.285
same,glycan array binding signal (z-score),GlcNAc(b1-3)Man,-0.062
same,glycan array binding signal (z-score),[10],-0.121
same,glycan array binding signal (z-score),[11],-0.288
same,glycan array binding signal (z-score),[12],-0.329
same,glycan array binding signal (z-score),[13],-0.43
same,glycan array binding signal (z-score),GlcNAc(b1-4)GlcNAc,-0.063
same,glycan array binding signal (z-score),[14],-0.266
same,glycan array binding signal (z-score),[15],-0.175
same,glycan array binding signal (z-score),[16],-0.011
same,glycan array binding signal (z-score),[17],-0.465
same,glycan array binding signal (z-score),[18],-0.309
same,glycan array binding signal (z-score),GlcNAc(b1-6)GalNAc,-0.243
same,glycan array binding signal (z-score),GlcNAc3Prop(b1-4)GlcNAc,-0.558
same,glycan array binding signal (z-score),[19],-0.334
same,glycan array binding signal (z-score),Kdn(a2-3)Gal(b1-3)GalNAc,-0.152
same,glycan array binding signal (z-score),Kdn(a2-3)Gal(b1-3)GlcNAc,-0.428
same,glycan array binding signal (z-score),Kdn(a2-3)Gal(b1-4)Glc,0.214
same,glycan array binding signal (z-score),Kdn(a2-3)Gal(b1-4)GlcNAc,-0.318
same,glycan array binding signal (z-score),[20],-0.136
same,glycan array binding signal (z-score),Kdn(a2-6)Gal(b1-4)GlcNAc,-0.263
same,glycan array binding signal (z-score),[21],0.469
same,glycan array binding signal (z-score),[22],-0.141
same,glycan array binding signal (z-score),Man(a1-2)Man(a1-3)Man,-0.321
same,glycan array binding signal (z-score),[23],-0.53
same,glycan array binding signal (z-score),[24],-0.433
same,glycan array binding signal (z-score),[25],0.127
same,glycan array binding signal (z-score),[26],-0.25
same,glycan array binding signal (z-score),[27],-0.205
same,glycan array binding signal (z-score),[28],-0.111
same,glycan array binding signal (z-score),Man(a1-3)[Man(a1-6)]Man,-0.152
same,glycan array binding signal (z-score),[29],0.784
same,glycan array binding signal (z-score),[30],-0.183
same,glycan array binding signal (z-score),[31],-0.342
same,glycan array binding signal (z-score),[32],-0.14
same,glycan array binding signal (z-score),[33],-0.393
